Experimental findings from paper PMC4242493 are described below.

Some of the results follow. The list includes weakly bound sequences.

For this test, the target named is MaxL homodimer (UniProt P61244). Nature of the test: universal protein-binding microarray (PBM). The following applies: PBS-based mixture, 10 nM His-tagged protein dimer, 2% milk, 200 ng/uL BSA, 50 ng/uL salmon testes DNA, 0.02% TX-100; detection with Alexa 488 anti-His …; high values mean tight binding; most listed sequences are background and not binding sites; double strand, one strand shown.
Chain of UniProt P61244 (P61244 whole entry): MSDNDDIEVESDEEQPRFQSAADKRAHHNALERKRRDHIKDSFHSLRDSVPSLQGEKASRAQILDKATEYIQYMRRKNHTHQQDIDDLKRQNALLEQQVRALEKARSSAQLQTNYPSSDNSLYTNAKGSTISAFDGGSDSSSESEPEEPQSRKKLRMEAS
Regarding AGCGACTC, the binding signal (normalized occupancy) is 0.0731.
With TACGAGAA, the binding signal (normalized occupancy) amounted to 0.075.
Turning to ACCCGAGA, the binding signal (normalized occupancy) came out at 0.0705.
The same measure for ACACTGAG: 0.0731.
With GTGGGGCA the figure was 0.0781.
AAACGATG: the binding signal (normalized occupancy) turned out to be 0.0722.
With ATTTTCCA the figure was 0.0795; with GGTTATAC, 0.0804; with GATGAGCA, 0.0802.
With CCACCCAG the figure was 0.0804; with ACATTTGG, 0.0755; with AACTGGAG, 0.0727.
In the case of GTCCTGAA, the binding signal (normalized occupancy) was found to be 0.0705.
With CTCGAGAA the figure was 0.0769.
The same measure for ACACCCCC: 0.0913; for TCGAGTCA: 0.0754.
The same measure for ACCGCACG: 0.0828; for GGATGACC: 0.0803; for GACACTCC: 0.0768.
As to CTTGAATC, the binding signal (normalized occupancy) was 0.0757.
The same measure for TTACTCAA: 0.069.
With GTGAAAAA the figure was 0.0773; with ACGTTATG, 0.0879; with CTCGGTCC, 0.0706.
The same measure for CGGCGCCA: 0.0686; for GACCAATC: 0.0726; for ACGCCCCT: 0.0783.
Take CGTTGGAC: the binding signal (normalized occupancy) stood at 0.0755.
With AAGGAGTG the figure was 0.0738; with ATACGCTG, 0.0737.
With GAACTCAA the figure was 0.0715; with CTGCTCCA, 0.0758; with ACGGGACA, 0.0774.
ACAGTCCT: the binding signal (normalized occupancy) came to 0.074.
The same measure for CAATTGTG: 0.0771; for CATAACGA: 0.0817.
The same measure for AAAGGTGA: 0.0738; for AACGGATG: 0.0738.
The same measure for GACCGTCA: 0.0699; for CTATGATC: 0.0755; for CATACTGA: 0.0804.
With ACCTGGAG, the binding signal (normalized occupancy) was 0.0744.
ATGCCCCC: the binding signal (normalized occupancy) is 0.084.
The same measure for ACACTGAT: 0.0738.
In the case of AGCATAGC, the binding signal (normalized occupancy) is 0.0776.
The same measure for ACCTCAGC: 0.0716.
With AACCAGTC the figure was 0.0716.
With CAAACATG the figure was 0.0901; with AATTCCCG, 0.0738; with AGTCGGGG, 0.0767.
CTTTCACA: the binding signal (normalized occupancy) amounted to 0.0732.
With CTATCCTA the figure was 0.0757; with AGCCAGGA, 0.078; with GTGATTAA, 0.082.
With ACCGTATC, the binding signal (normalized occupancy) turned out to be 0.074.
With CCGTCTTA, the binding signal (normalized occupancy) was 0.0684.
Turning to AAAGTGTA, the binding signal (normalized occupancy) was determined as 0.0869.
ACGCTACG: the binding signal (normalized occupancy) was found to be 0.0854.
With ATGGATGG the figure was 0.0812; with CTACCGGA, 0.0764; with ATATTCTA, 0.0828.
The same measure for AGCTGTTG: 0.0705; for GAAGTATA: 0.0736; for CGTATGCC: 0.0784.
The same measure for ACCAAGGA: 0.0738.
Turning to CCGACTCC, the binding signal (normalized occupancy) worked out at 0.0671.
With GACTACTA the figure was 0.0774; with GATTGCTA, 0.0714; with CAATTATG, 0.0802.
Regarding AACCTGGC, the binding signal (normalized occupancy) was 0.0717.
With ACCGCTTC the figure was 0.0677; with GTCTGTAA, 0.0776; with GTAGGGAC, 0.0697.
On to GTAAGTAA, for which the binding signal (normalized occupancy) was 0.0825.
The same measure for ATTTTCGG: 0.0746.
With TTACGAAA, the binding signal (normalized occupancy) came out at 0.0726.
As for AATCTAGA, the binding signal (normalized occupancy) amounted to 0.0712.
The same measure for AGCCGCCA: 0.0684; for GATGGAGC: 0.0776.
The same measure for GGATCAAA: 0.0757.
For ACATTAGG, the binding signal (normalized occupancy) amounted to 0.0844.
The same measure for AGACCGGA: 0.0706.
The same measure for AAAAGTGA: 0.0725; for CCAATTGA: 0.0716.
In the case of CCCTACGA, the binding signal (normalized occupancy) is 0.0814.
The same measure for GACTCTAC: 0.075; for GCCATGGA: 0.0788.
With TCTTCGCA the figure was 0.0796; with CGACCGTC, 0.0722; with AACTGAAT, 0.0721.
The same measure for CACGGTGA: 0.0847; for AAGGACGC: 0.0688.
With CGTATACG, the binding signal (normalized occupancy) was 0.0798.
The same measure for AGCCCACA: 0.0759.
The same measure for AACTGTTA: 0.0755; for ACGTTAAG: 0.0743; for CCCGTAGC: 0.0683.
With CTCCTACA the figure was 0.0776; with CAGCGTGG, 0.129.
For the sequence ACAACCGT, the binding signal (normalized occupancy) is 0.0742.
For CCGGCACG, the binding signal (normalized occupancy) amounted to 0.0836.
GATCAGAA: the binding signal (normalized occupancy) was determined as 0.0725.
With ACAAAAGG the figure was 0.0713; with AGAAATAG, 0.0797; with CATCAAGC, 0.0726.
For AATACTTG, the binding signal (normalized occupancy) amounted to 0.0777.
The same measure for AGAATGTC: 0.0744.
Consider ACTTCTTC, for which the binding signal (normalized occupancy) was 0.0712.
Regarding CGCTCGTA, the binding signal (normalized occupancy) is 0.0784.
The same measure for CGACTATA: 0.0856; for CGATAACG: 0.0734; for AGAATGGG: 0.0752.
For the sequence GCGGCGCC, the binding signal (normalized occupancy) came out at 0.0654.
With ATGCGGTC the figure was 0.0901.
For GGGATACC, the binding signal (normalized occupancy) is 0.0741.
The same measure for CGACATAC: 0.0791.
With CAAGTTTC the figure was 0.0747.
As to AAACCAAA, the binding signal (normalized occupancy) was found to be 0.071.
On to ATGCCACG, for which the binding signal (normalized occupancy) stood at 0.101.
With AAACATTT the figure was 0.0688.
In the case of CATCAGAC, the binding signal (normalized occupancy) was determined as 0.0785.
As for AATTAATA, the binding signal (normalized occupancy) stood at 0.0733.
The same measure for AAGCGCGC: 0.0767.
With ACTGTCCT the figure was 0.0719; with CATAGGTA, 0.0785; with GGCTAAGA, 0.0725.
The same measure for AAATATAT: 0.0798.
For CTAAGGGA, the binding signal (normalized occupancy) stood at 0.0721.
The same measure for GATCGTGA: 0.0758.
With GCACAGTA, the binding signal (normalized occupancy) stood at 0.0696.
The same measure for ACTCCTCT: 0.0714.
In the case of CATAAATG, the binding signal (normalized occupancy) worked out at 0.0826.
For the sequence GAGAAAAA, the binding signal (normalized occupancy) was 0.0657.
The same measure for CGCCGCAA: 0.0658; for ACAATGCC: 0.0821; for AGTAGCTC: 0.0765.
As for ACAGGGTG, the binding signal (normalized occupancy) turned out to be 0.0771.
With TAAATGTA the figure was 0.0785; with GTTGATTA, 0.0771; with ATGTCACG, 0.101.
The same measure for GCGCGTCC: 0.0708.
The same measure for CTAATGCA: 0.0781; for CCTAGGCG: 0.0728; for TCCCAAGA: 0.0679.
ACCCCTGC: the binding signal (normalized occupancy) was 0.0762.
With GCCTCTTA the figure was 0.073.
The same measure for GTCTCACA: 0.0781; for GAGTTACA: 0.0767.
With AAGACAGT the figure was 0.0726.
In the case of CATTTGCG, the binding signal (normalized occupancy) came out at 0.0749.
The same measure for ATACTAGC: 0.0756; for GTGCGAAC: 0.0736.
With AAGATCGG the figure was 0.0697; with CTTAATGC, 0.07.
The same measure for CGGGAAGA: 0.0749; for GGAAGGCC: 0.0699.
With CAGCCTCC, the binding signal (normalized occupancy) was 0.0691.
The same measure for ACCGGGCC: 0.0674; for ATTCCTTG: 0.0713; for AATATTTC: 0.0809.
The same measure for GAAGATTA: 0.073; for CACGAATC: 0.0759; for GGCACGGA: 0.0704.
With ATTTTTTC the figure was 0.0734; with GCCGCGGA, 0.0659; with CTGGCCGA, 0.0668.
Take GTTATGGA: the binding signal (normalized occupancy) was determined as 0.0865.
With CGTGCAAA the figure was 0.0868; with ACATGGCT, 0.0932.
The same measure for CGTACCTC: 0.0674; for ATGGAGAG: 0.0815; for AGATTCCT: 0.0865.
With GGCTGCCC the figure was 0.0697.
As for TGAGCAAA, the binding signal (normalized occupancy) was 0.0783.
On to AACCAGCT, for which the binding signal (normalized occupancy) amounted to 0.0707.
With ACCATGAG the figure was 0.0976.
For the sequence CCGATATA, the binding signal (normalized occupancy) was found to be 0.0798.
With TACCGCCA the figure was 0.0821; with ACGATACG, 0.0757; with ACGCTCTC, 0.0783.
As to AGGTTCAG, the binding signal (normalized occupancy) was determined as 0.0747.
With CGCAACAC the figure was 0.0797; with AGACGCCT, 0.0683.
With CTGATCAG the figure was 0.07; with AGCGCCCA, 0.0708; with GCTATACC, 0.0805.
With ACATATTG the figure was 0.0827; with GAGTCAAC, 0.0769; with GACCCTCA, 0.0742.
Consider CTATCGGC, for which the binding signal (normalized occupancy) is 0.0709.
With GTAATCCA the figure was 0.0839; with CCTCGTCC, 0.0701.
The same measure for GCCTGACA: 0.0768.
The same measure for GGGTTGAA: 0.0787.
As for CCCCCCAG, the binding signal (normalized occupancy) turned out to be 0.0811.
As to GAAGGATA, the binding signal (normalized occupancy) is 0.0773.
With GCGGAGCA the figure was 0.07; with GAAGAAAC, 0.0746.
Regarding CTTCCATC, the binding signal (normalized occupancy) amounted to 0.0842.
The same measure for ATAGCTTC: 0.074; for CACTCGAC: 0.0757; for CTCAAGGA: 0.0688.
The same measure for AAGTCGTG: 0.0757; for AACCGCCA: 0.0716.
The same measure for ATTGATAA: 0.0774; for AGGACCTC: 0.0682; for CTATGTCC: 0.077.
